The values that follow come from US20250084180A1 (MIE UNIVERSITY, published 2025).

Common to all, as to assay: cell-based or functional assay
Assay [1] deals with complex of a MAGE-A4 derived peptide and HLA-A2 (human).
The target is the same in assay [2]. The source holds these as a separate data set.
Assay [3] has the same target. This is another data set of the same source.
Assay [4] shares this target. This is another data set of the same source.

B1: MAGE-A4-zG (other)
chain: QVQLQVQLVQSGAEVKKPGSSVKVSCKASGGTFSSYAISWVRQAPGQGLEWMGGIIPIFGTANYAQKFQGRVTITADKSTSTAYMELSSLRSEDTAVYYCARSPRRAYHDAFDIWGQGTMVTVSSGGGGSGGGGSGGGGSSYELTQPPSMSVAPGKTASITCGGDHIGSKSVHWYQQKPGQAPVLVVYDDSDRPSGIPERFSGSNSGNTATLTISGTQAMDEADYYCLAWDSSTAIFGGGTQLTVLVGQPKANPTVTLFPPSSEELQANKATLVCLISDFYPGAVTVAWKADGSPVKAGVETTKPSKQSNNKYAASSYLSLTPEQWKSHRSYSCQVTHEGSTVEKTVAPTECSARQTRFWVLVVVGGVLACYSLLVTVAFIIFWVRL[not shown - about 120 residues]RSQCMWPRETQLLLEVPPSTEDARSCQFPEEERGERSAEEKGRLGDLWV
As to B1, in assay [1], the “Cell lysis (%), CAR-T cells on SK-MEL-37, Effecter:Target = 1:1” value (“Cell lysis (%) … Effecter:Target = 1:1” below) turned out to be 18% and the “Ratio of Cell lysis to MAGE-A4-zG (1.00), SK-MEL-37, Effecter:Target = 1:1” value (“Ratio of Cell lysis … Effecter:Target = 1:1” below) amounted to 1 ratio. For the same molecule, in assay [2], the “Cell lysis (%), CAR-T cells on SK-MEL-37, Effecter:Target = 10:1” value stood at 33% and the “Ratio of Cell lysis to MAGE-A4-zG (1.00), SK-MEL-37, Effecter:Target = 10:1” value worked out at 1 ratio. In assay [3], the “Cell lysis (%), CAR-T cells on SK-MEL-37, Effecter:Target = 3:1 (Example 3)” value (“Cell lysis (%), CAR-T cells … (Example 3)” for short) worked out at 43% and the “Ratio of Cell lysis to MAGE-A4-zG (1.00), SK-MEL-37, Effecter:Target = 3:1 (Example 3)” value (from here on “Ratio of Cell lysis to MAGE-A4-zG … (Example 3)”) was found to be 1 ratio. Besides, in assay [4], the “Cell lysis (%), CAR-T cells on SK-MEL-37, Effecter:Target = 3:1” value turned out to be 13% and the “Ratio of Cell lysis to MAGE-A4-zG (1.00), SK-MEL-37, Effecter:Target = 3:1” value came out at 1 ratio.

B2: MAGE-A4-zG-Em4 (other)
chain: QVQLQVQLVQSGAEVKKPGSSVKVSCKASGGTFSSYAISWVRQAPGQGLEWMGGIIPIFGTANYAQKFQGRVTITADKSTSTAYMELSSLRSEDTAVYYCARSPRRAYHDAFDIWGQGTMVTVSSGGGGSGGGGSGGGGSSYELTQPPSMSVAPGKTASITCGGDHIGSKSVHWYQQKPGQAPVLVVYDDSDRPSGIPERFEGSNSGNEAELTISGTQAMDEADYYCLAWDSSTAIFGGGTQLTVLVGQPKANPTVTLFPPSSEELQANKATLVCLISDFYPGAVTVAWKADGSPVKAGVETTKPSKQSNNKYAASSYLSLTPEQWKSHRSYSCQVTHEGSTVEKTVAPTECSARQTRFWVLVVVGGVLACYSLLVTVAFIIFWVRL[not shown - about 120 residues]RSQCMWPRETQLLLEVPPSTEDARSCQFPEEERGERSAEEKGRLGDLWV
Regarding B2, in assay [1], the “Cell lysis (%) … Effecter:Target = 1:1” value came to 36% and the “Ratio of Cell lysis … Effecter:Target = 1:1” value is 2 ratio. In addition, in assay [3], the “Cell lysis (%), CAR-T cells … (Example 3)” value turned out to be 98% and the “Ratio of Cell lysis to MAGE-A4-zG … (Example 3)” value stood at 2.28 ratio.

B3: MAGE-A4-zG-Dm5 (other)
chain: QVQLQVQLVQSGAEVKKPGSSVKVSCKASGGTFSSYAISWVRQAPGQGLEWMGGIIPIFGTANYAQKFQGRVTITADKSTSTAYMELSSLRSEDTAVYYCARSPRRAYHDAFDIWGQGTMVTVSSGGGGSGGGGSGGGGSSYELTQPPSMSVAPGKTASITCGGDHIGSKSVHWYQQKPGQAPVLVVYDDSDRPSGIPDRFSGSNSGNTATLDIDGTQAMDEADYYCLAWDSSTAIFGGGTQLTVLVGQPKANPTVTLFPPSSEELQANKATLVCLISDFYPGAVTVAWKADGSPVKAGVETTKPSKQSNNKYAASSYLSLTPEQWKSHRSYSCQVTHEGSTVEKTVAPTECSARQTRFWVLVVVGGVLACYSLLVTVAFIIFWVRL[not shown - about 120 residues]RSQCMWPRETQLLLEVPPSTEDARSCQFPEEERGERSAEEKGRLGDLWV
Regarding B3, in assay [1], the “Cell lysis (%) … Effecter:Target = 1:1” value came out at 34% and the “Ratio of Cell lysis … Effecter:Target = 1:1” value was determined as 1.89 ratio. Besides, in assay [3], the “Cell lysis (%), CAR-T cells … (Example 3)” value is 84% and the “Ratio of Cell lysis to MAGE-A4-zG … (Example 3)” value was 1.95 ratio.
